From ChEMBL document CHEMBL1201862, “PubChem BioAssay data set” (2004) come the findings set out here.

Molecules are shown by their SMILES.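 Exposure lasted 48 hours, with cells grown in 96-well plates and compounds tested at five concentrations. At the GI50, growth is halved.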 Calls of active or inactive are those of the source. Rule as the data show it: active = GI50 up to about 1.1 µM and inactive = higher.

The test system of the test is NCI-H322M. Nature of the test: inhibition of tumour cell growth, NCI panel, 48 h.
As for `COc1cc2c(oc(=O)c3cc(C)cc(OC)c32)c2c(C3OC(C)C(O)C(C)(O)C3O)ccc(O)c12` (centres undefined), the GI50 is active: 0.493 µM.

Regarding `O=c1c2cc([N+](=O)[O-])cnc2sn1-c1ccc(Oc2ccccc2)cc1`, the GI50 is inactive: 36.1 µM.

With `COC(=O)c1c(C)cccc1C1CN=NC12Cc1ccccc1C2=O` (centres undefined), the GI50 was inactive: > 100 µM.

Take `C=C1CC(C)(COc2cc(=O)oc3ccccc23)OC1=O` (centres undefined): the GI50 is inactive: 10 µM.

Regarding `COc1ccc2c(c1)[n+]([O-])c(C(=O)C/C(=N\NC(=O)C[N+](C)(C)C)C(=O)Nc1cc(Cl)ccc1Cl)c(C)[n+]2[O-]`, the GI50 was inactive: > 100 µM.

As to `COc1cccc2c1N[S@](=O)S2`, the GI50 was inactive: > 100 µM.

Regarding `Oc1c([Si](c2ccccc2)(c2ccccc2)c2ccccc2)cc2ccccc2c1-c1c(O)c([Si](c2ccccc2)(c2ccccc2)c2ccccc2)cc2ccccc12`, the GI50 was inactive: > 100 µM.

As to `CC1(C)O[C@@H](CO)[C@H]([C@@]23OC[C@H]4OC(C)(C)OC4[C@@H]2OC(C)(C)O3)O1` (some centres undefined), the GI50 was inactive: > 100 µM.

As to `CO/C=C/c1cc2c(cc1C(OC)OC)OCO2`, the GI50 was inactive: 55 µM.

Regarding `Fc1cccc2cc3ccc4cccc5ccc(c12)c3c45`, the GI50 was inactive: 36.6 µM.

For `Nc1ncc2c(n1)-c1ccccc1OC2`, the GI50 is inactive: > 93.3 µM.

Take `[O-][n+]1ccccc1Sc1nc(Sc2cccc[n+]2[O-])nc(Sc2cccc[n+]2[O-])n1`: the GI50 was inactive: 14.1 µM.

For the molecule `Clc1cccc(C2N3CCCCC3[C@@H]3c4[nH]c5ccccc5c4CCN23)c1` (some centres undefined), the GI50 is inactive: 28.3 µM.

As to `CC(=O)N1C(OCc2ccccc2)CCN1c1ccccc1` (centres undefined), the GI50 is inactive: > 10 µM.

`O=C(COc1ccc(Cl)cc1Cl)N/N=C/C=C/c1ccc([N+](=O)[O-])o1`: the GI50 is inactive: 26.3 µM.

In the case of `Cc1cc(=O)c2cc(/N=C/c3ccc([N+](=O)[O-])o3)ccc2o1`, the GI50 was inactive: > 100 µM.

For the molecule `COc1ccc(/C=N/N=C(\N)NO)c(OC)c1`, the GI50 is inactive: 49.1 µM.

For `COc1ccc(C2=NN(c3ccccc3)C[N+](c3ccc(OC)cc3)=N2)cc1`, the GI50 was inactive: 25.1 µM.

On to `Cn1cc(NC(=O)c2cc(NC(=O)Nc3cc(C(=O)Nc4cc(C(=O)NCCC(=N)N)n(C)c4)n(C)c3)cn2C)cc1C(=O)NCCC(=N)N`, for which the GI50 was inactive: 48.8 µM.

`O=c1ccc2ccc(OP(=O)(O)O)cc2o1`: the GI50 was inactive: > 100 µM.

For `COc1ccc2nc3ccc(OC)cc3c([S+]([O-])Cc3ccc([N+](=O)[O-])cc3)c2c1` (centres undefined), the GI50 was inactive: 18.6 µM.

Turning to `Cc1ccc(S(=O)(=O)C(CC(NC=O)S(=O)(=O)c2ccc(C)cc2)NC=O)cc1` (centres undefined), the GI50 is inactive: > 100 µM.

For `Cc1ccc(S(=O)(=O)OCC23CCC(C4CC42)C2CC23)cc1` (centres undefined), the GI50 was inactive: > 100 µM.

With `CC(=O)O[C@H]1CCC2[C@@H]3CCC4Nc5oncc5C[C@]4(C)C3CC[C@@]21C` (some centres undefined), the GI50 is inactive: > 10 µM.

With `O=C(Cc1nc2ccccc2[nH]c1=O)c1c[nH]c2ccccc12`, the GI50 is inactive: 36.4 µM.

As to `Cc1ccc(-c2cc(=O)c3cc(C)c(C)c(C(=O)O)c3o2)cc1`, the GI50 was inactive: > 100 µM.

`COC(=O)c1cc(NC(=O)c2cc(NC(=O)Cc3c[nH]c4ccccc34)cn2C)cn1C`: the GI50 was inactive: 17.8 µM.

Consider `CC(=O)Oc1ccc2c(c1)[nH]c1c3ccc(OC(C)=O)cc3oc(=O)c21`, for which the GI50 was inactive: 23.5 µM.

As to `COC(=O)CCC1CCc2c(OC)ccc(O)c2C1=O` (centres undefined), the GI50 is inactive: > 100 µM.

Regarding `CCOC(=O)N1N=NC2C3OC(C[C@@]3(C#N)OC(C)=O)[C@H]21` (some centres undefined), the GI50 is inactive: > 100 µM.

`O=C1CCCCN1C(=O)c1ccc([N+](=O)[O-])cc1`: the GI50 was inactive: > 100 µM.

As to `C=C1C(=O)O[C@@H]2CC(CO)=C([C@@H](C)CCCO)[C@@H](OC(=O)/C(C)=C\C)[C@H]12`, the GI50 was inactive: 26 µM.

In the case of `CC1OC(O[C@H]2CC[C@]3(C=O)[C@H]4CC[C@]5(C)[C@H](C6=CC(=O)OC6)CC[C@]5(O)[C@@H]4C=C[C@]3(O)C2)CC(O)C1O` (some centres undefined), the GI50 is active: 0.497 µM.

For `CC(C)C(=O)NC(=S)Nc1ccc([N+](=O)[O-])cc1C#N`, the GI50 was inactive: > 100 µM.

As to `O=C1NC(N2CCCCC2)=N/C1=C\c1ccco1`, the GI50 was inactive: > 100 µM.

As to `COc1ccc(Nc2nc3ccc(C(F)(F)F)cc3nc2C(=O)O)cc1OC`, the GI50 is inactive: 36.8 µM.

`Cn1c2ccccc2c(=S)c2ccccc21`: the GI50 is inactive: > 100 µM.

On to `CCC(=O)OCOc1ccc(/C=C2\CCC(CN(C)C)C2=O)cc1` (centres undefined), for which the GI50 is inactive: 16.7 µM.

With `CC(=O)c1ccc(NC(=O)C(=O)Nn2c(S)nc3ccccc3c2=O)cc1`, the GI50 is inactive: > 100 µM.

As for `COc1ccccc1NC(=O)C1=C(C)NC(C)=C(C(=O)Nc2ccccc2OC)C1c1ccc([N+](=O)[O-])cc1`, the GI50 was inactive: > 100 µM.

Consider `[N-]=[N+]=Nc1ccc(CNc2cc(=O)[nH]c(=O)[nH]2)cc1`, for which the GI50 was inactive: > 100 µM.

With `C/C(=N\NC(=S)N/N=C(\C)c1ccccn1)c1ccccn1`, the GI50 was inactive: 4.43 µM.

For `CN(C)[C@@H]1C(O)=C(C(=O)NCNc2nc3[nH]nnc3c(=O)[nH]2)C(=O)[C@@]2(O)C(O)=C3C(=O)c4c(O)cccc4[C@@](C)(O)[C@H]3C[C@@H]12`, the GI50 was inactive: 33.5 µM.

Take `COc1cccc2c1C(=O)c1c(O)c3c(c(O)c1C2=O)C[C@@](O)(C(=O)CO)C[C@@H]3OC1CC2C(OCN3CN2COC2C(C)OC(O[C@H]4C[C@](O)(C(=O)CO)Cc5c(O)c6c(c(O)c54)C(=O)c4c(OC)cccc4C6=O)CC23)C(C)O1` (some centres undefined): the GI50 was active: 0.1 µM.

On to `N#CC1(C2SCC[S+]2[O-])C2=C(C(=O)c3ccccc3C2=O)N2CCCC21` (centres undefined), for which the GI50 was inactive: 3.44 µM.

Consider `C[C@@H]1OC(=O)C[C@H]2CC(=O)N(CCC3CN(C(=O)OCc4ccccc4)c4ccccc43)C[C@@H]21` (some centres undefined), for which the GI50 is inactive: > 100 µM.

In the case of `COc1cc2c(c(O)c1C)C(=O)C(Cl)=CC2=O`, the GI50 was inactive: 17.1 µM.

With `N#C/C(=C/c1cccc2ccccc12)C(=O)c1ccccc1`, the GI50 was inactive: > 100 µM.

Consider `CC(C)OP(=O)(CCCCCCCCC/C=C/c1ccc2c(c1)OCCOCCOCCOCCO2)OC(C)C`, for which the GI50 is inactive: 3.33 µM.

In the case of `CCC1(O)C=CC(=O)C=C1`, the GI50 was inactive: 39.2 µM.

Consider `COc1ccc(/C(Cl)=C(\c2ccc(OCCN(C)C)cc2)c2ccc(OC(=O)C(C)(C)C)cc2)cc1`, for which the GI50 is inactive: 14.9 µM.

With `O=C1c2ccccc2C2CNC1(O)c1ccccc12` (centres undefined), the GI50 was inactive: > 100 µM.

Turning to `O=C1Nc2ccccc2C(=O)O/C(Cc2ccccc2)=N\c2ccccc21`, the GI50 was inactive: > 100 µM.

`CCN(CC)CCN(C)c1ccc(CO)c2c1c(=O)c1ccccc1[s+]2[O-]` (centres undefined): the GI50 was inactive: 7.03 µM.

As for `O=C(/C=C/c1ccc(Cl)cc1)c1ccc(Cl)s1`, the GI50 is inactive: > 100 µM.

In the case of `CCCCC(C(=O)C(=O)Nc1ccccc1CC)C(=O)C(C)C` (centres undefined), the GI50 is inactive: > 100 µM.

For `O=C(C1=CCC2(CC1)OCCO2)N(Cc1ccccc1)c1ccccc1I`, the GI50 was inactive: 18 µM.

On to `O=C(/C=C/c1ccc(OCc2ccccc2)cc1)NCc1ccc(C(=O)NCCc2c[nH]c3ccccc23)cc1`, for which the GI50 was inactive: 47.8 µM.

With `O=C(CNc1ccc2c(=S)c3ccccc3[nH]c2c1)Nc1ccccc1-c1ccccc1NC(=O)CNc1ccc2c(=S)c3ccccc3[nH]c2c1`, the GI50 is inactive: 22 µM.

`Fc1ccc(/N=C2C=C/C(=N\c3ccc(F)cc3)c3ccccc3\2)cc1`: the GI50 is inactive: > 100 µM.

Regarding `C/C(=N\Nc1nc2ccccc2[nH]1)c1ncccn1`, the GI50 is active: 0.042 µM.

As to `CC1(C(=O)O)CCOc2ccccc21` (centres undefined), the GI50 is inactive: > 100 µM.

`Nc1ncnc2c1ncn2C1(CO)OC(CO)C(O)C1O` (centres undefined): the GI50 was inactive: > 100 µM.

In the case of `COC(=O)/N=[N+](\[O-])C(c1ccc(Cl)cc1)c1ccc(Cl)cc1`, the GI50 is inactive: 34.2 µM.

For the molecule `CCCCCNC(=O)C1C(=O)N(CCCCC)C(=O)/C1=N\N` (centres undefined), the GI50 was inactive: > 100 µM.

For the molecule `COc1ccc2c(c1)OC(c1cccnc1)C(c1ccccc1)C2=O` (centres undefined), the GI50 is inactive: > 100 µM.

Regarding `Cc1cccc(NC(=O)CC(=O)N2N=C(N3c4ccccc4Sc4ccccc43)CC2c2ccccc2)c1` (centres undefined), the GI50 was inactive: > 100 µM.

With `CCCCCCCCP(=O)(O)OP(=O)(O)OCC1OC(n2ccc(N)nc2=O)C(O)C1O` (centres undefined), the GI50 was inactive: > 100 µM.

As to `CCOC(=O)/C(C)=C(/O)C(=O)OCC`, the GI50 was inactive: > 100 µM.

In the case of `Cc1cc(-c2ccc(/N=N/c3ccc4c(S(=O)(=O)O)cc(S(=O)(=O)O)c(N)c4c3O)c(C)c2)ccc1/N=N/c1ccc2c(S(=O)(=O)O)cc(S(=O)(=O)O)c(N)c2c1O`, the GI50 was inactive: > 100 µM.

Consider `CCOP(=O)(O)CN1CCNCCN(CP(=O)(O)OCC)CCNCC1`, for which the GI50 was inactive: > 100 µM.

With `COC(=O)CC(C(C(C)=O)C(=O)OCc1ccccc1)N1C(=O)OC(c2ccccc2)C1c1ccccc1` (centres undefined), the GI50 is inactive: > 100 µM.

Consider `CO[C@H](C(=O)O[C@H]1C(=O)N2CC[C@@H]3CCC[C@H]1C32C)c1ccccc1` (some centres undefined), for which the GI50 is inactive: > 100 µM.

With `COc1ccc(Cc2cc(OC)c(OC)c(OC)c2)cc1`, the GI50 was active: 0.453 µM.

In the case of `Nc1ncnc2c1ncn2C=C=CCO`, the GI50 is inactive: > 100 µM.

`N#C/C(=C1\N=NC(N)=C(c2ccc(Cl)cc2)C1=O)c1ccc(Cl)cc1`: the GI50 was inactive: > 100 µM.

For `CCc1nc(N)nc(N)c1-c1ccc(N(C)Cc2ccccc2)c([N+](=O)[O-])c1`, the GI50 is active: 0.184 µM.

For the molecule `CC(C)(O)C(O)COc1c2c(cc3oc(=O)ccc13)OCO2` (centres undefined), the GI50 was inactive: > 100 µM.

With `CN(C)CCN(C)c1ccc2c(=O)n(CCN(C)C)c(=O)n3c4ccccc4c(=O)c1c23`, the GI50 was active: 0.555 µM.
